These results are taken from the supplement of paper PMC10338343.

± gives the standard deviation. Only a part is listed here, and it is no random draw.
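Also: 1 nM active piRISC with 0.1 nM target library at 33 °C single turnover.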

The test system of the experiment is MIWI (PIWIL1) piRISC loaded with piRNA #1 (30 nt). Description: pre-steady-state target cleavage rate (min^-1); MIWI and MILI are mouse PIWI proteins and EfPiwi is from a freshwater sponge; tags in brackets are library labels; higher = faster piRNA-guided slicing of the target. Particulars: guide: piRNA #1 5'p-UGAGGUAGUAGGUUGUAUAGUAUCCAGAGG; auxiliary factor: 500 nM mouse GTSF1. Summed up: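 In this Cleave-'n-Seq assay, uncleaved targets were sequenced and normalised to depth and to weakly complementary targets. They came from a transcribed, DNA-blocked target RNA library […] mixed with 1 nM active affinity-purified piRISC carrying one synthetic guide, with or without 500 nM GTSF1 partner protein, in HEPES–potassium acetate buffer at 33 °C for 0–8 or 0–960 min. After three trials were pooled and k3 was capped at 0.0001 min^-1, the pre-steady-state cleavage rate was obtained from a burst-and-steady-state fit.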
On to GGAGACCUAACUAUACAACCUACUACACUCA, for which the “pre-steady-state target cleavage rate” value amounted to 0.539 ± 0.059.
For the sequence CCUCUGGAUACUAUACUUGCUACUACCUCA, the “pre-steady-state target cleavage rate” value is 0.0866 ± 0.014.
For GGAGACCUAUCUAUAAAACCUACUACCUCA the value was 0.284 ± 0.04; for GGAGAGGUUACUAUACAACCUACUUCCUCA, 0.0679 ± 0.013; for GGACUGGAUACUGAUACAACCUACUACCUCA, 1.59 ± 0.13.
For the sequence GGAGACCUAUCUAUACAUCCAACUACCUCA, the “pre-steady-state target cleavage rate” value was determined as 0.00717 ± 0.0022.
For the sequence GGAGACCUAACUAUACAACCUACUACCCCA, the “pre-steady-state target cleavage rate” value worked out at 0.867 ± 0.099.
For GGAGACCUAUCAAUACAAGCUACUACCUCA the value was 0.0616 ± 0.015; for CCACUGGAUACUAUACAACCAACUACCUCA, 0.189 ± 0.021.
Turning to CGUCUGGAUACUUUACAACCUACUACCUCA, the “pre-steady-state target cleavage rate” value amounted to 1.86 ± 0.12.
On to CCUCUGGAUACUAUACAACCUACUACCUUA, for which the “pre-steady-state target cleavage rate” value was determined as 1.81 ± 0.11.
For GGAGAGGAUACUAUACAACCAUGUACCUCA, the “pre-steady-state target cleavage rate” value came to 0.0042 ± 0.002.
For the sequence “GGAGUGGAUACUAUACAACCUACUACCUCU [g2:g26:cont:t1U]”, the “pre-steady-state target cleavage rate” value stood at 1.4 ± 0.09.
For GGAGACCUAUCUAACAACCUACUACCUCA, the “pre-steady-state target cleavage rate” value was found to be 0.00858 ± 0.0041.
Regarding GCUCUGGAUACUAUACAACCUACUACCUUA, the “pre-steady-state target cleavage rate” value was determined as 1.73 ± 0.11.
The value for GGAGACCAUACGUAUACAACCUACUACCUCA was 0.95 ± 0.089; that for GGACUGGAUACUAAUACAACCUACUACCUCA was 1.55 ± 0.13; that for GCUCUGGAUACAUAACAACCUACUACCUCA was 0.907 ± 0.092.
With GGAGUGGAUACUAUAGUUCCUACUACCUCA, the “pre-steady-state target cleavage rate” value came to 0.158 ± 0.025.
On to CCUCUGCAAACUAUACAACCUACUACCUCA, for which the “pre-steady-state target cleavage rate” value came out at 1.97 ± 0.12.
Consider GGUCUGGAUACUAUACAAUCUACUACCUCA, for which the “pre-steady-state target cleavage rate” value was 0.466 ± 0.021.
For CCUCUGGAUACUAUACAACCUAGCUACCUCA, the “pre-steady-state target cleavage rate” value stood at 0.187 ± 0.019.
Regarding GGAGACCAUUGAAUACAACCUACUACCUCA, the “pre-steady-state target cleavage rate” value came to 0.0064 ± 0.0037.
For the sequence GCACUGGAUACUAUACAACCUAGUACCUCA, the “pre-steady-state target cleavage rate” value turned out to be 0.493 ± 0.048.
For the sequence GCUCUGGAUACUUUACAACCUACUUCCUCA, the “pre-steady-state target cleavage rate” value amounted to 0.246 ± 0.033.
GGAGACCAUACAAUACAACCUAGUACCUCA: the “pre-steady-state target cleavage rate” value was 0.267 ± 0.035.
For GCUCUGGAUACUAUACAACCUACUGCCUCA the value was 1.5 ± 0.11; for GGUCUGGAUACUUUACAACCUACUAGCUCA, 0.00909 ± 0.0025.
CCUCUGGAUACUAUACAUCCUACUACGUCA: the “pre-steady-state target cleavage rate” value is 0.921 ± 0.063.
Take GGAGACCUUCUAUACAACCUACUACCUCA: the “pre-steady-state target cleavage rate” value is 0.621 ± 0.077.
In the case of GCUCUGGAUACUAUACAAGCUACUACCACA, the “pre-steady-state target cleavage rate” value is 1.45 ± 0.065.
On to GGAGACCAUUCUAUACAACCUACUACCACA, for which the “pre-steady-state target cleavage rate” value stood at 1.16 ± 0.1.
With GGAGAGGUACUAUACAACCUACUACCUCA, the “pre-steady-state target cleavage rate” value amounted to 0.483 ± 0.042.
For GGAGACCAUACUAAACAACCUACUAGCUCA, the “pre-steady-state target cleavage rate” value turned out to be 0.507 ± 0.059.
In the case of GGAGACCAUACUAUACAACCUACUGACCUCA, the “pre-steady-state target cleavage rate” value was found to be 0.414 ± 0.038.
For CCUCUCGAUACUAUACAACCUACUAGCUCA the value was 1.46 ± 0.087; for GGAGACCUAUCUAUACAACCUACUGACCUCA, 0.378 ± 0.03; for GGAGACCUAUCAAUACAACCUACUACGUCA, 0.0093 ± 0.004.
Take GGAGAGGAUACUAUACUACCUACAACCUCA: the “pre-steady-state target cleavage rate” value came to 0.41 ± 0.043.
As to GCUCUGGAAACUAAACAACCUACUACCUCA, the “pre-steady-state target cleavage rate” value was determined as 1.56 ± 0.11.
